Consider 20 molecules from the supplement of paper PMC11171410.

Most values come without repeats; read them as rough. Bounds are passed on as bounds.

Test [1] deals with SUDHL6 venetoclax-resistant. Description: estimated IC50 (cell viability); higher = less potent.
Another test has as its system SUDHL6 parental. Described as above.
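Note: compound screen comparing venetoclax-resistant SUDHL6, derived by months of escalating venetoclax exposure, with its matched parental line, IC50 from one-site nonlinear dose–response fit, geometric mean for duplicated compounds.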

As for `C/C(=N\NC(=S)N1CCC1)c1ccccn1`, the entries for the “estimated IC50” value (in test [1]; in the test with SUDHL6 parental) were 20 nM and 66 nM, respectively.
In the same order, the values of `C=CC(=O)Nc1cccc(Oc2nc(Nc3ccc(N4CCN(C)CC4)cc3)nc3ccsc23)c1` are 3200 nM and 8130 nM.
Taken in the same sequence, the figures for `CC(C)CC(=O)Nc1n[nH]c2c1CN(C(=O)C1CCN(C)CC1)C2(C)C` were 1770 nM and 7190 nM.
Taken in the same sequence, the figures for `CC(C)N1CCN(Cc2cnc(-c3cc(-c4cccc5[nH]ccc45)cc4[nH]ncc34)o2)CC1` were 1780 nM and 6530 nM.
For `CC1(C)CC(=O)c2c(C(F)(F)F)nn(-c3ccc(C(N)=O)c(N[C@H]4CC[C@H](O)CC4)c3)c2C1`, the “estimated IC50” value in test [1] is 261 nM; with SUDHL6 parental it was 648 nM.
In the same order, the values of `CCc1cnn2c(NCc3ccc[n+]([O-])c3)cc(N3CCCC[C@H]3CCO)nc12` are 13 nM and 37 nM.
Taken in the same sequence, the figures for `CN(C)CC#Cc1ccc(OCCCc2sc(N3CCc4cccc(C(=O)Nc5nc6ccccc6s5)c4C3)nc2C(=O)O)c(F)c1` were 4580 nM and over 10000 nM.
As to `CN(CCOc1ccc(-c2ccc3c(c2)OCO3)cc1C(C)(C)C)CC(=O)O`, the “estimated IC50” value was 5690 nM in test [1] and over 10000 nM in the test with SUDHL6 parental.
In the same order, the values of `CN1CCN(c2ccc(OC(F)(F)F)c(Nc3ncc4c(n3)-c3c(c(C(N)=O)nn3CCO)CC4)c2)CC1` are 100 nM and 306 nM.
With `CNC(=O)Nc1ccc(-c2nc(N3CC4CCC(C3)O4)c3cnn(C4CCC5(CC4)OCCO5)c3n2)cc1`, the “estimated IC50” value is 105 nM in test [1] and 1590 nM in the test with SUDHL6 parental.
Taken in the same sequence, the figures for `COc1cccc(NC(=O)/C=C/c2ccc(Cl)cc2)c1` were 4050 nM and over 10000 nM.
Taken in the same sequence, the figures for `C[C@@H]1COCCN1c1cc(-c2ccnn2C)c2ccnc(-c3ccn[nH]3)c2n1` were 1630 nM and 4220 nM.
Regarding `Cc1ccc(C(=O)N(CCCN)[C@@H](c2oc3cc(Cl)ccc3c(=O)c2Cc2ccccc2)C(C)C)cc1`, the results for the “estimated IC50” value (in test [1]; with SUDHL6 parental) were 1.1 nM and 4.5 nM, respectively.
Turning to `Cc1ccc(S(=O)(=O)Nc2cc(-c3ccc(C#N)s3)ccc2C)cc1`, the “estimated IC50” value in test [1] was 36 nM; in the test on SUDHL6 parental, 88 nM.
In the case of `Cc1nc2ccc(-n3ncc(C(=O)c4cc5ccccc5[nH]4)c3N)cc2[nH]1`, the “estimated IC50” value in test [1] was 6540 nM; with SUDHL6 parental, over 10000 nM.
In the case of `N#Cc1ccc(-c2c(-c3ncn[nH]3)sc(N3CCOCC3)c2C#N)c(F)c1`, the figures for the “estimated IC50” value (in test [1]; with SUDHL6 parental) were 1470 nM and 4520 nM, respectively.
In the same order, the values of `O=C1NC(=O)C(c2cnc3ccccn23)=C1c1cn2c3c(cc(F)cc13)CN(C(=O)N1CCCCC1)CC2` are 760 nM and 2090 nM.
Taken in the same sequence, the figures for `Nc1ncn([C@@H]2O[C@H](CO)[C@@H](O)[C@H]2O)c(=O)n1` [5-azacytidine] were 2130 nM and 4800 nM.
`Cn1cc(C2=C(c3coc4ccc(F)cc34)C(=O)NC2=O)c2cc3c(cc21)OCO3` [9-ing-41]: the “estimated IC50” value in test [1] was 4670 nM; with SUDHL6 parental, 7000 nM.
Taken in the same sequence, the figures for `Cc1sc2c(c1C)C(c1ccc(Cl)cc1)=N[C@@H](CC(=O)OC(C)(C)C)c1nnc(C)n1-2` [(+)-JQ1] were 810 nM and 1520 nM.
